Results reported in PubChem BioAssay AID504333 (National Center for Advancing Translational Sciences (NCATS), 2011).
Among all 360,000 compounds or so, about 16,000 (4.4%) were called active. This list was built around the results that the source calls inconclusive (neither active nor inactive); the mix of calls is not that of the screen. Calls come from the whole dose curve; as a rule, active = well fitted inhibition curve with a large enough effect; inconclusive = small, poorly fitted or top-dose-only effect; inactive = no such curve, though single readings can be large or run the other way. Potencies of inconclusive entries are doubtful fits and often do not repeat.

What follows are compounds tested against Bromodomain adjacent to zinc finger domain protein 2B (Homo sapiens) (UniProt Q9UIF8) (assay: qHTS Assay for Inhibitors of BAZ2B). Details: AlphaScreen BAZ2B-H3K14Ac peptide displacement; activity change, negative = inhibition: at 114 µM (top of the series) unless noted.
Sequence of UniProt Q9UIF8 (Q9UIF8 whole entry, looked up, the tested form may be a part): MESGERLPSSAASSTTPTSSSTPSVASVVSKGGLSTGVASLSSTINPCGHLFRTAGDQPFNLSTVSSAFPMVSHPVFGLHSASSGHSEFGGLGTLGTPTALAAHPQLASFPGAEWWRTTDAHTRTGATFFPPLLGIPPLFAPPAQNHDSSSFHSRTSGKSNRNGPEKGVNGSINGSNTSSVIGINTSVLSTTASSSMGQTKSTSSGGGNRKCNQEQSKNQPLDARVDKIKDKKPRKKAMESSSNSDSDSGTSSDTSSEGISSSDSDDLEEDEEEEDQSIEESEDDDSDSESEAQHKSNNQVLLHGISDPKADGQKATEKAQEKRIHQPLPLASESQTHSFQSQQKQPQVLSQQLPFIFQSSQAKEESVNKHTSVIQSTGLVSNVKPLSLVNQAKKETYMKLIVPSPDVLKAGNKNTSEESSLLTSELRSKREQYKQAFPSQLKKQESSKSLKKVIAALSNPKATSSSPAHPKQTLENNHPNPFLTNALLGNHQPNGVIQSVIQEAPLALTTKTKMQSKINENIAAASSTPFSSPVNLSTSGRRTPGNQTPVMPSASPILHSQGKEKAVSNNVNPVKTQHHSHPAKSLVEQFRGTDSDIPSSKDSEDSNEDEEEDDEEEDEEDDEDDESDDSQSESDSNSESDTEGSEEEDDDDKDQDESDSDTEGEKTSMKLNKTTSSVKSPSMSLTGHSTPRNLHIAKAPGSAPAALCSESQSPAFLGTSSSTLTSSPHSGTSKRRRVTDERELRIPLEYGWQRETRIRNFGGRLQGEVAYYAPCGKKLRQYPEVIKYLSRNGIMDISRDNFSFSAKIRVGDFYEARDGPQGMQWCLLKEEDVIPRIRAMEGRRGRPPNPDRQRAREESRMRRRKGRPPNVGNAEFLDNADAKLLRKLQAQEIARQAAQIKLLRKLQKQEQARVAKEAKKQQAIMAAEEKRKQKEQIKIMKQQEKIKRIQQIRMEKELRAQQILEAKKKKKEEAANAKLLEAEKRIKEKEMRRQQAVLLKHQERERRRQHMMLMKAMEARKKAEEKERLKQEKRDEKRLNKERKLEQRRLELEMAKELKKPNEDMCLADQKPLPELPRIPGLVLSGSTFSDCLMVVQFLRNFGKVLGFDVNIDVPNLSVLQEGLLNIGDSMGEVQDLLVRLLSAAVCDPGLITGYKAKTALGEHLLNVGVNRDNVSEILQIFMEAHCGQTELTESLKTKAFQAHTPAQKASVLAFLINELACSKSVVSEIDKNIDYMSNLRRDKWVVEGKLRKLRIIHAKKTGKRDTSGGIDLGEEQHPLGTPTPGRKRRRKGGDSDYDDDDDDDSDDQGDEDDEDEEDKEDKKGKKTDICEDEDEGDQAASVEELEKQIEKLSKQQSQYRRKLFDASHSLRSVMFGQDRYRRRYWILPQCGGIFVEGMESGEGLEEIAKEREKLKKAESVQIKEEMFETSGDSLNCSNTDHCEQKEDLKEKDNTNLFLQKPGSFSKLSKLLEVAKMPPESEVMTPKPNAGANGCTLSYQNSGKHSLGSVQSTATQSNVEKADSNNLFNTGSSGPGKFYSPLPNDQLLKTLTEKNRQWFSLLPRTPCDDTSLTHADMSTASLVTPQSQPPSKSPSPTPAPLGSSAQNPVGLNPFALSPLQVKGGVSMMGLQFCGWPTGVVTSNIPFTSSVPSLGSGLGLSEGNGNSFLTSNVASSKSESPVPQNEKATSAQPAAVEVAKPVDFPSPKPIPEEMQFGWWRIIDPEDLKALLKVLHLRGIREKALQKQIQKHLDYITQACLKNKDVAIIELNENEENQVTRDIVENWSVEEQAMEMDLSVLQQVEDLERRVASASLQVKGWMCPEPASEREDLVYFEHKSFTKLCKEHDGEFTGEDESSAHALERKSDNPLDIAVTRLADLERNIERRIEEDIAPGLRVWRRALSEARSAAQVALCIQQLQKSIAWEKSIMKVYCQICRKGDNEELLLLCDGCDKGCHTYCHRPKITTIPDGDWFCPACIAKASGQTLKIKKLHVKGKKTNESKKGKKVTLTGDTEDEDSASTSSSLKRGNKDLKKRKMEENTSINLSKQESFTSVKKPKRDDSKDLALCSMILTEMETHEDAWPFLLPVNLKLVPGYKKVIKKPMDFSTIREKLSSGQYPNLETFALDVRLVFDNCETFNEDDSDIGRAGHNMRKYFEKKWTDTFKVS
In short: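 Protein-peptide AlphaScreen: BAZ2B 50 nM, b-H3K14Ac 50 nM, 1x PBS pH 7.4 + 0.01% Tween-20. Preincubation 30 min RT; cpd 30 min RT (top 110 uM); beads 20 min RT, light-protected.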
% is set by controls: 0 for no effect and ±100 for the full control effect; potency is the fitted concentration of half-maximal effect; tags give direction and shape of the fitted curve.
Note: nearly all actives have a fitted effect of over 60% in size.

Row | SMILES | Potency | activity change, negative = inhibition
1 | Cn1c2ccccc2c2cnn(CC(=O)Nc3ccccc3F)c(=O)c21 | inconclusive: 89.1 µM [inhibitor, single point] | –
2 | COc1ccc(Cn2c(SCc3ccc(C)cc3)nc3cc(OC)c(OC)cc3c2=N)cc1Cl | inconclusive: 70.8 µM [inhibitor, single point] | –
3 | CN(CCO)S(=O)(=O)c1ccc2c(c1)C(=NN)c1cc(S(=O)(=O)N(C)CCO)ccc1-2 | – | inactive: -15.1%
4 | N#CCCN1CCN(C(=S)c2ccc(-c3ccc(Cl)cc3)o2)CC1 | active: 39.8 µM | –
5 | Cc1ccc(-c2ccccc2NC(=O)CCl)o1 | inconclusive: 39.8 µM [inhibitor, single point] | –
6 | O=[N+]([O-])c1ccc(Cl)cc1Sc1nc2ccccc2o1 | active: 14.1 µM | –
7 | Cc1ccc(-c2n[nH]c(=S)n2/N=C/c2cccs2)cc1 | – | inactive: -3.02%
8 | COCCN(Cc1cc2cc(C)ccc2nc1Cl)C(=O)Nc1ccccc1OC | – | inactive: -5.84%
9 | Cc1ccc(NC(=O)c2oc3ccccc3c2NC(=O)C23CC4CC(CC(C4)C2)C3)cc1 | inconclusive: 25.1 µM [inhibitor, full curve] | –
10 | c1ccc(Sc2cnc3ccccc3n2)cc1 | inconclusive: 100 µM [inhibitor, single point] | –
11 | COc1cccc(CN2CCN(Cc3[nH]c4ccccc4c3C)CC2CCO)c1 (centres undefined) | active: 35.5 µM | –
12 | CCOc1ccc(Nc2ncnc3scc(-c4ccc(OC)cc4)c23)cc1 | – | inactive: -2.31%
13 | CC(C)(C)c1cccc(P(=O)(c2ccccc2)c2ccccc2)c1O | – | inactive: -1.39%
14 | O=C(O)c1ccc(NS(=O)(=O)c2cc(Cl)ccc2Cl)cc1 | – | inactive: -19.6%
15 | CC(=O)Nc1ccc(S(=O)(=O)NC2=C(N3CCN(Cc4ccccc4)CC3)C(=O)c3ccccc3C2=O)cc1 | active: 20 µM | –
16 | COc1ccc(-c2c(C)nc(N)nc2-c2ccc(OCc3ccc(C)cc3)cc2O)cc1OC | inconclusive: 39.8 µM [inhibitor, partial curve] | –
17 | COCC(C)n1c(C)cc(C(=O)COC(=O)c2ccc3c(c2)NC(=O)CS3)c1C (centres undefined) | inconclusive: 39.8 µM [inhibitor, partial curve] | –
18 | Cc1cccc(-n2c(C)cc(/C=C3\NC(=O)NC3=O)c2C)c1 | inconclusive: 39.8 µM [inhibitor, partial curve] | –
19 | CCn1c(C)c(C(C)=O)c(N2CCN(C(c3ccccc3)c3ccccc3)CC2)nc1=S | inconclusive: 79.4 µM [inhibitor, single point] | –
20 | CCCc1cc(=O)[nH]c(SCc2cc(=O)oc3cc(C)c(C(C)C)cc23)n1 | – | inactive: -4.46%
21 | O=C1C=C(O)C(n2cncn2)C(c2cc(F)ccc2F)C1 (centres undefined) | inconclusive: 79.4 µM [inhibitor, single point] | –
22 | Cn1c(N)c(C(=O)CSc2nnc(-c3c[nH]c4ccccc34)n2C2CC2)c(=O)[nH]c1=O | inconclusive: 89.1 µM [inhibitor, single point] | –
23 | COC(=O)[C@H](Cc1c[nH]c2ccccc12)NC(=O)CCCc1c[nH]c2ccccc12 | inconclusive: 50.1 µM [inhibitor, partial curve] | –
24 | COc1ccccc1/C=N/NC(=O)c1[nH]c(C)c(C(=O)N/N=C/c2ccccc2OC)c1C | inconclusive: 10 µM [inhibitor, partial curve, poor fit] | –
25 | C=CCNC(=O)c1ccc(Cn2c(=S)[nH]c3cc4c(cc3c2=O)OCO4)cc1 | – | inactive: -9.13%

Row | SMILES | Potency | activity change, negative = inhibition
26 | Cc1sc2ncnc(NCC3CCCO3)c2c1C (centres undefined) | inconclusive: 89.1 µM [inhibitor, single point] | –
27 | CN(C)CCCN(C(=O)c1ccc(S(=O)(=O)N2CCc3ccccc32)cc1)c1nc2ccc(F)cc2s1 | inconclusive: 35.5 µM [inhibitor, partial curve] | –
28 | CCOC(=O)c1c(C)[nH]c(O)c1C=Nc1ccccc1 | active: 50.1 µM | –
29 | CCOc1ccc(N(CC(=O)N2CCC(Cc3ccccc3)CC2)S(C)(=O)=O)cc1 | – | inactive: 14.3%
30 | NS(=O)(=O)c1ccc(NC(=S)NCc2ccco2)cc1 | inconclusive: 79.4 µM [inhibitor, single point] | –
31 | CCOc1ccccc1Nc1nnc(SC(C)C(=O)Nc2nc(-c3ccccc3)cs2)s1 (centres undefined) | – | inactive: -7.27%
32 | CC(=O)c1ccc(NC(=O)CSc2nnc(N)s2)cc1 | inconclusive: 89.1 µM [inhibitor, single point] | –
33 | CC1=CC(=O)C(C(C)C)=C/C1=C(\c1cc(C(C)C)c(OP(=O)(O)O)cc1C)c1ccccc1C(=O)O | – | inactive: -1.34%
34 | Cc1ccc(-c2nn(-c3cc(Cl)ccc3[N+](=O)[O-])c(=O)c3ccccc23)cc1 | inconclusive: 25.1 µM [inhibitor, full curve] | –
35 | Cc1ccc(C)n1-c1nc(=S)[nH][nH]1 | inconclusive: 50.1 µM [inhibitor, partial curve] | –
36 | O=C(Nc1cc(F)ccc1F)c1ccc(CN2CC(=O)N3CCCCC3C2=O)cc1 (centres undefined) | – | inactive: -9.06%
37 | CCSc1cc(C2C(C(=O)OC)=C(C)NC3=C2C(=O)CCC3)c(C)o1 (centres undefined) | inconclusive: 70.8 µM [inhibitor, single point] | –
38 | Cc1ccc(NC(=O)CN(C)C2CCCCC2)cc1Cl | inconclusive: 79.4 µM [inhibitor, single point] | –
39 | Cc1cc(C)cc(-n2c(SCC(=O)N3CCCCCC3)nc3c([nH]c4ccccc43)c2=O)c1 | – | inactive: 5.26%
40 | O=C(NN1C(=O)C2C3C=CC(O3)C2C1=O)c1cccc(O)c1 (centres undefined) | – | inactive: -2.89%
41 | NC(=S)N/N=C/c1cccc(O)c1O | active: 8.91 µM | –
42 | CCc1cccc(OCCN2CCCC2)c1 | active: 56.2 µM | –
43 | COc1ccccc1OCCNC(=O)c1ccc(S(=O)(=O)N(C)C)cc1 | – | inactive: -8.54%
44 | O=C(Nc1nc(-c2ccccn2)cs1)C12CC3CC(CC(O)(C3)C1)C2 | active: 14.1 µM | –
45 | COc1cccc(-c2cc(C(=O)O)[nH]n2)c1 | inconclusive: 89.1 µM [inhibitor, single point] | –
46 | CCC1CCCCN1C(=O)CCS(=O)(=O)c1cc2c(cc1C)NC(=O)CO2 (centres undefined) | inconclusive: 11.2 µM [inhibitor, full curve] | –
47 | C/C(CC(=O)Nc1ccc2c(c1)OCO2)=N\NC(=O)C(c1ccccc1)c1ccccc1 | inconclusive: 70.8 µM [inhibitor, single point] | –
48 | CCOc1ccccc1N1CCN(S(=O)(=O)c2ccc(Cl)s2)CC1 | – | inactive: 10.3%
49 | Cc1ccc(Nc2c(-c3ccc(C)o3)nc3cccc(C)n23)cc1 | active: 25.1 µM | –
50 | Cc1[nH]n(-c2ccc(Br)cc2)c(=O)c1C=Nc1ccc(S(=O)(=O)Nc2nccs2)cc1 | inconclusive: 44.7 µM [inhibitor, partial curve] | –

Row | SMILES | Potency | activity change, negative = inhibition
51 | CCCCN1C(=O)C(=Nc2cccc3cnccc23)c2ccccc21 | active: 28.2 µM | –
52 | CCOc1ccc2nc(SCC(=O)N3CCCCCC3)c(C#N)cc2c1 | inconclusive: 89.1 µM [inhibitor, single point] | –
53 | Cc1cc(/C=N/NC(=O)c2c(Br)cnn2C)c(C)n1-c1cccc(Br)c1 | active: 28.2 µM | –
54 | CC1CCN(CCCCOc2ccc(F)cc2)CC1 | inconclusive: 89.1 µM [inhibitor, single point] | –
55 | Cc1nn(C(C)c2nc(-c3ccccc3)no2)c(C)c1[N+](=O)[O-] (centres undefined) | inconclusive: 35.5 µM [inhibitor, single point] | –
56 | NNc1nc2ccc(Cl)cc2s1 | active: 50.1 µM | –
57 | NS(=O)(=O)c1ccc(NC(=O)COC(=O)CSCc2ccc(F)cc2)cc1 | – | inactive: -4.86%
58 | O=C(c1cc2ncc(Br)cn2n1)N1CCN(C(=O)c2ccco2)CC1 | inconclusive: 50.1 µM [inhibitor, partial curve] | –
59 | O=C(NCCc1ccccc1)c1cnc2sc(N3CCCCC3)nn2c1=O | – | inactive: -5.47%
60 | COc1ccc(Nc2nc(N)nc(CSC(=S)N3CCN(C)CC3)n2)cc1 | inconclusive: 79.4 µM [inhibitor, single point] | –
61 | CCOc1ccc(NCC(=O)N/N=C/C=C/c2ccccc2)cc1 | inconclusive: 31.6 µM [inhibitor, full curve] | –
62 | CN1CCc2c(sc3nc(NN)n(-c4ccc(Cl)cc4)c(=O)c23)C1 | inconclusive: 39.8 µM [inhibitor, full curve] | –
63 | COc1ccccc1/C=C/C=N/NC(=O)Cc1cccn1C | inconclusive: 44.7 µM [inhibitor, partial curve] | –
64 | CCOC(=O)CSc1nnc(N)s1 | – | inactive: -4.29%
65 | Cc1cc(C)cc(NC(=O)c2cc(S(=O)(=O)N3CCCC3)ccc2F)c1 | – | inactive: 4.25%
66 | COc1cc(C(=O)OCC(=O)NCc2ccco2)cc(OC)c1OC | inconclusive: 89.1 µM [inhibitor, single point] | –
67 | COc1cc(CNc2ccc(N3CCCC3)cc2)cc(Cl)c1OC | active: 35.5 µM | –
68 | CC1CCc2nc(NC(=O)CN3CCN(Cc4ccc5c(c4)OCO5)CC3)sc2C1 (centres undefined) | inconclusive: 79.4 µM [inhibitor, single point] | –
69 | S=C(NCCCn1ccnc1)Nc1cccc(Cl)c1 | active: 44.7 µM | –
70 | COC(=O)CCC(=O)OC1(C)C(=O)C=C2C=C(C3CC3)N(CC(C)C)C=C2C1=O (centres undefined) | inconclusive: 89.1 µM [inhibitor, single point] | –
71 | Cc1cccc(OCC(=O)N(Cc2ccc(F)cc2)C2CCS(=O)(=O)C2)c1C (centres undefined) | inconclusive: 79.4 µM [inhibitor, single point] | –
72 | CC(=O)NC(=S)Nc1ccc(NC(=S)NC(=O)/C=C/c2ccco2)cc1 | inconclusive: 79.4 µM [inhibitor, single point] | –
73 | CCn1c(CNC(=O)c2ccc(Cl)cc2)nnc1SCC(=O)NC1=NCCS1 | – | inactive: -17.5%
74 | O=C(O)CCN1C(=O)S/C(=C\c2cccnc2)C1=O | inconclusive: 89.1 µM [inhibitor, single point] | –
